# Where “and” joins values, the source holds several entries; their conditions need not be identical. Identical values can stand only once. In all, about 360,000 compounds went through this assay and about 16,000 (4.4%) were called active. This list was built around the results that the source calls inconclusive (neither active nor inactive); the mix of calls is not that of the screen. The call rests on the fitted dose curve; in most records, active means well fitted inhibition curve with a large enough effect; inconclusive means small, poorly fitted or top-dose-only effect; inactive means no such curve, though single readings can be large or run the other way. Potencies of inconclusive entries are doubtful fits and often do not repeat.
# Biological target: Bromodomain adjacent to zinc finger domain protein 2B (Homo sapiens) (UniProt Q9UIF8)
# Test: qHTS Assay for Inhibitors of BAZ2B; further: nearly all actives have a fitted effect of over 60% in size
# Settings: AlphaScreen BAZ2B-H3K14Ac peptide displacement; series mostly up to 114 µM
# Outline: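 Compounds, titrated to a top concentration of 110 uM, were incubated 30 min at room temperature with preformed BAZ2B/acetyl-K14 H3 peptide complex (50 nM each). Proximity signal was measured by AlphaScreen after 20 min with beads.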
# Potency means the concentration at half of the fitted maximal effect; tags describe the fitted curve by direction and shape.
# Chain of UniProt Q9UIF8 (Q9UIF8 whole entry, looked up, the tested form may be a part): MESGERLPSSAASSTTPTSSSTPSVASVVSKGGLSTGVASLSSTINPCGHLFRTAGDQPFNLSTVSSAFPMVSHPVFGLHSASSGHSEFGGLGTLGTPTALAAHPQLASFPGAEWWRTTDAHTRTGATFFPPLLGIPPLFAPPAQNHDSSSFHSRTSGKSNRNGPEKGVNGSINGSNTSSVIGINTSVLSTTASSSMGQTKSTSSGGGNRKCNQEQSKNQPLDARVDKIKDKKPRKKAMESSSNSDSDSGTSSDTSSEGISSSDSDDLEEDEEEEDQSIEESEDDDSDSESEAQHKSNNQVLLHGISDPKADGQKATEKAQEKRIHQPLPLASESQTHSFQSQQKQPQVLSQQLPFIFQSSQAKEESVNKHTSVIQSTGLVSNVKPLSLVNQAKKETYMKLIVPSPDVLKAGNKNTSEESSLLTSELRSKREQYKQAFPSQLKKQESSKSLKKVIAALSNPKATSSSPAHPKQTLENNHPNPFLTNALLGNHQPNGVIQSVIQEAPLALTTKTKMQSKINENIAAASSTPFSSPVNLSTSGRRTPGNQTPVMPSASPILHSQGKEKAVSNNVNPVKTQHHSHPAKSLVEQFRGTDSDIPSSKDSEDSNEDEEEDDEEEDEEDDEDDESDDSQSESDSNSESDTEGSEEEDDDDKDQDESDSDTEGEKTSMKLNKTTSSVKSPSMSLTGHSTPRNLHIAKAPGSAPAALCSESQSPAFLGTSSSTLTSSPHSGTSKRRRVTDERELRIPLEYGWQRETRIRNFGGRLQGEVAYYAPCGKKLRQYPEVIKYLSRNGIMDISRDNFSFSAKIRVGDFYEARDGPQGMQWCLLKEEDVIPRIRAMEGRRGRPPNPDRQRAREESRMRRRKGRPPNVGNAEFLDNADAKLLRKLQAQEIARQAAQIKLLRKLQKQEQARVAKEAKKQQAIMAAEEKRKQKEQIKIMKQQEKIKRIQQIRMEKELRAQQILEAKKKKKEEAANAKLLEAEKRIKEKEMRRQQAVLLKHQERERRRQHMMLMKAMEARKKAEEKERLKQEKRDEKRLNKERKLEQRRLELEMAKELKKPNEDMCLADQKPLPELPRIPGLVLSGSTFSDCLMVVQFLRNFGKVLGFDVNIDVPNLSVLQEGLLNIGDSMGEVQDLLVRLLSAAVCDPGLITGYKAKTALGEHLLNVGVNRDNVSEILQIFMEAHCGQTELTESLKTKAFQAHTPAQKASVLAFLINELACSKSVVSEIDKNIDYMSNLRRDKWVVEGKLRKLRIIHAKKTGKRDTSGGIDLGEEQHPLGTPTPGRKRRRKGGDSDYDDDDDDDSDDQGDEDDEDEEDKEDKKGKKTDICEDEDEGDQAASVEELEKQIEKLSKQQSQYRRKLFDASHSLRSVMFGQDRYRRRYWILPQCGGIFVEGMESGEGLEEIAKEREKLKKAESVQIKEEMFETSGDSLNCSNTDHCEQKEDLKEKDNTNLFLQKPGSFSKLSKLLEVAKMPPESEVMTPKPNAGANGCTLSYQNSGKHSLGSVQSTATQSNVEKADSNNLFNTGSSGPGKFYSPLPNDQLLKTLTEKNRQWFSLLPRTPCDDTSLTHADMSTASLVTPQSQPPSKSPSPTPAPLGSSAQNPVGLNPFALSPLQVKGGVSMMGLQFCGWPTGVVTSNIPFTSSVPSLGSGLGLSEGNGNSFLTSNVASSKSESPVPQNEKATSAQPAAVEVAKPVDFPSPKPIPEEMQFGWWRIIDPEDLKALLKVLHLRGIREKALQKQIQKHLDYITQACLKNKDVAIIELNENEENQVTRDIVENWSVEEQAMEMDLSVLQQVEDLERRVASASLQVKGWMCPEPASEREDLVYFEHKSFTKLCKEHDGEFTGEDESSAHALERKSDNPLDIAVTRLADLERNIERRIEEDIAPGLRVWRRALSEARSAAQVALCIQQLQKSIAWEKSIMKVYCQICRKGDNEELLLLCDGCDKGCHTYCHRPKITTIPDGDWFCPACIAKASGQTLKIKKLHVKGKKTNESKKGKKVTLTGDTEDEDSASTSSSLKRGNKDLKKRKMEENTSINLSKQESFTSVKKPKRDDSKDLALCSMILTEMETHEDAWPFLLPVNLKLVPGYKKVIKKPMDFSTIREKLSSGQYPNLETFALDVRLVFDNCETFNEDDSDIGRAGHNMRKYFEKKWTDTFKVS
row,Structure (SMILES),Potency
1,O=C1Nc2ccc(F)cc2C12Nc1ccccc1-c1nnc(SCc3ccccc3)nc1O2 (stereo not given),"inconclusive: 89.1 µM [inhibitor, single point]"
2,O=C1NN(c2ccccc2)C(=O)/C1=C/c1ccc(Sc2cccc3ccccc23)o1,active: 10 µM
3,O=C(O)c1nn(CCOc2ccc(Cl)cc2Cl)c(=O)c2ccccc12,inactive
4,CC1CCN(C(C)C(=O)Nc2ccccc2-c2ccccc2)CC1 (stereo not given),"inconclusive: 31.6 µM [inhibitor, single point]"
5,COCCSc1nnc(NC(=O)C2CC(=O)N(c3ccc(OC)cc3)C2)s1 (stereo not given),inactive
6,CN(Cc1ccccc1)S(=O)(=O)c1ccc2c(c1)n(C)c(=O)n2C,"inconclusive: 79.4 µM [inhibitor, single point]"
7,COc1ccc(S(=O)(=O)N(C)CC(=O)NCCN2CCOCC2)cc1Cl,"inconclusive: 39.8 µM [inhibitor, single point]"
8,CCOC(=O)c1c(C)[nH]c(N=Nc2ccc(C)cc2)c1C,active: 44.7 µM
9,Cc1ccc(NC(=O)c2nc(S(C)(=O)=O)ncc2N(Cc2ccco2)Cc2cccs2)cc1C,"inconclusive: 56.2 µM [inhibitor, single point]"
10,O=C1CC(=C2c3ccccc3-c3ccccc32)C(=O)N1CCCCN1CCN(c2ccccc2)CC1,"inconclusive: 8.91 µM [inhibitor, full curve, poor fit]"
11,O=C(CN1CCCCC1)NN(Cc1ccccc1)c1ccccc1,active: 50.1 µM
12,Cc1c(C)n(CC(O)CNc2ccccc2)c2ccccc12 (stereo not given),active: 25.1 µM
13,COc1ccc(N2CCN(C(=O)COCc3cc(-c4ccc5c(c4)OCO5)on3)CC2)cc1,"inactive and inconclusive: 6.31 µM [inhibitor, full curve]"
14,O=C(C1=C(O)C(=O)N(Cc2ccco2)C1c1ccccc1F)c1cccs1 (stereo not given),"inconclusive: 79.4 µM [inhibitor, single point]"
15,CCCn1cc(S(=O)(=O)c2ccc(Cl)cc2)c(=O)c2cc(OC)ccc21,"inconclusive: 89.1 µM [inhibitor, single point]"
16,Cc1cccc(N(C)C(=O)Cc2c(C(=O)O)[nH]c3ccccc23)c1,inactive
17,COc1ccc2c(c1)c(/C=N/Nc1nc3ccccc3[nH]1)c(C)n2C,active: 28.2 µM
18,O=C(Nc1ccc(Nc2ccccc2)cc1)C(Cl)Cl,"inconclusive: 79.4 µM [inhibitor, single point]"
19,CCOc1cc(/C=C2\SC(=S)N(NS(=O)(=O)c3ccccc3)C2=O)ccc1O,"inconclusive: 44.7 µM [inhibitor, partial curve]"
20,Cc1cccc(NC(=O)CCNS(=O)(=O)c2ccc3c(c2)CCN3C(=O)C2CC2)c1,inactive
21,COc1ccc(OC)c(N=C2C(=O)Nc3ccccc32)c1,"inconclusive: 89.1 µM [inhibitor, single point]"
22,Cc1ccc2c(CNCc3ccc(C)o3)c(C(=O)O)n(Cc3ccc(F)cc3)c2c1,active: 50.1 µM
23,Cc1ccccc1NC(=O)CSc1nc(-c2ccco2)nc2cc(=O)[nH]n12,"inconclusive: 79.4 µM [inhibitor, single point]"
24,Cc1ccc(C(=O)Oc2cc(-c3ccc4c(c3)OCO4)cc(=O)c3c(C)oc(C)c23)cc1,"inconclusive: 44.7 µM [inhibitor, partial curve]"

row,Structure (SMILES),Potency
1,COc1ccc(CCNc2ncnc3c2[nH]c2cc(OC)c(OC)cc23)cc1OC,"inconclusive: 56.2 µM [inhibitor, partial curve]"
2,O=C1/C(=C/c2ccccc2O)SC(=S)N1Cc1cccnc1,inactive
3,NC(=O)CSc1nnc(NC(=O)C2CC(=O)N(c3ccc(F)cc3)C2)s1 (stereo not given),"inconclusive: 70.8 µM [inhibitor, single point]"
4,COCCCn1c(-c2ccc(S(=O)(=O)N3CCOCC3)cc2)csc1=Nc1ccccc1,"inconclusive: 10 µM [inhibitor, partial curve, poor fit]"
5,Cc1nc2ccccn2c1-c1csc(NCc2ccco2)n1,active: 50.1 µM
6,Cc1ccc(NC(=O)c2cc(Cl)ccc2[N+](=O)[O-])cc1C,"inconclusive: 50.1 µM [inhibitor, partial curve]"
7,COc1ccc(CCNC(=O)c2c(-c3ccccc3Cl)noc2C)cc1,"inconclusive: 89.1 µM [inhibitor, single point]"
8,CCc1ccc(NC(=O)N(CCN2CCOCC2)Cc2ccc3c(c2)CCCN3CC)cc1,"inconclusive: 20 µM [inhibitor, full curve, poor fit]"
9,Cc1ccc(/C=C/C(=O)Nc2ccc(Oc3ccccc3)cc2)o1,"inconclusive: 17.8 µM [inhibitor, full curve]"
10,CC(C)N1C(=O)C2C(c3ccccc3O)NC(C)(C(=O)O)C2C1=O (stereo not given),"inconclusive: 39.8 µM [inhibitor, partial curve]"
11,CC1Sc2ccc(S(=O)(=O)CCC(=O)Nc3cc(F)ccc3F)cc2NC1=O (stereo not given),inactive
12,CCOC(=O)C1=C(C)N(CC)C(=S)NC1c1ccc(Cl)cc1 (stereo not given),"inconclusive: 44.7 µM [inhibitor, partial curve]"
13,N#Cc1ccccc1CSc1nnc2ccc3ccccc3n12,inactive
14,Cc1cc2nc(-c3ccccc3)cc(=O)n2[nH]1,inactive
15,COc1cccc(N2CCN(c3ccc4nnc(CCC(=O)Nc5ccc(OC)c(OC)c5)n4n3)CC2)c1,"inconclusive: 79.4 µM [inhibitor, single point]"
16,COCCn1nnnc1CN1CCN2CCCC2C1 (stereo not given),"inconclusive: 89.1 µM [inhibitor, single point]"
17,COc1ccccc1N1CCN(/N=C\c2cccnc2)CC1,active: 79.4 µM
18,O=C(CN1CCN(c2ccc(F)cc2)CC1)NCc1ccc(Cl)cc1,"inconclusive: 22.4 µM [inhibitor, full curve, poor fit]"
19,COc1ccc(NC(=O)CN(C)C2CCCCC2)c([N+](=O)[O-])c1,"inconclusive: 44.7 µM [inhibitor, partial curve]"
20,Cc1ccc(C)c(NC(=S)N2CCC(c3nc4ccccc4s3)CC2)c1,"inconclusive: 79.4 µM [inhibitor, partial curve, poor fit]"
21,Cc1coc2cc3oc(=O)c(CCC(=O)NCc4ccccc4Cl)c(C)c3cc12,inactive
22,CN(CCOc1ccccc1)CC(=O)Nc1cccc(Br)c1,"inconclusive: 89.1 µM [inhibitor, single point]"
23,Cc1cc(O)ccc1N/C=C/c1onc(C)c1[N+](=O)[O-],"inconclusive: 79.4 µM [inhibitor, partial curve]"
24,COc1ccc(C)cc1NCc1ccc(OC)c(C)c1OC,active: 22.4 µM

row,Structure (SMILES),Potency
1,C(=N\NC1=Nc2cccc3cccc1c23)/c1ccccc1,"inconclusive: 100 µM [inhibitor, single point]"
2,Fc1ccc(C2=Nn3c(nnc3-c3ccco3)SC2)cc1,inactive
3,O=C1NC(=Nc2ccccc2)S/C1=C\C=C\c1ccco1,active: 25.1 µM
4,COc1ccc(CCNc2nc3cc(OC)c(OC)cc3c3nc(-c4ccccc4)nn23)cc1OC,"inconclusive: 8.91 µM [inhibitor, full curve]"
5,Cc1ccc(-c2csc(NC(=O)c3ccc([N+](=O)[O-])o3)n2)cc1,"inconclusive: 56.2 µM [inhibitor, single point]"
6,CC(=O)N(c1cccc(C)c1)S(=O)(=O)c1ccc(Cl)cc1,inactive
7,[S-]c1nnc(-c2ccc(Br)cc2)n1-c1ccccc1.[Zn+2],active: 79.4 µM
8,Cc1cccc(N2CCN(c3ncnc4c3nc3n4CCCCC3)CC2C)c1 (stereo not given),"inconclusive: 39.8 µM [inhibitor, partial curve]"
9,COc1ccc2c(c1)C=C(C(=O)OCc1cccnc1)CO2,inactive
10,CC1=CC(C)(C)Nc2ccc(OC(=O)c3cccnc3)cc21,active: 39.8 µM
11,CCN(CC)c1ccc(/C=N/NC(=S)NCc2ccc(OC)cc2)cc1,"inconclusive: 17.8 µM [inhibitor, full curve]"
12,CSc1ncc(-c2ccc(Cl)cc2)[nH]1,"inconclusive: 89.1 µM [inhibitor, single point]"
13,COC(=O)C1=C(C)N(c2ccc(C)c(C)c2)/C(=C/c2ccco2)C1=O,"inconclusive: 0.631 µM [inhibitor, full curve, poor fit]"
14,CCOC(=O)c1ccc(NC(=O)CCc2nnc3ccc(N4CCCC4)nn23)cc1,"inconclusive: 89.1 µM [inhibitor, single point]"
15,O=[N+]([O-])c1ccc2[nH]c3c(c2c1)CCCC3,"inconclusive: 50.1 µM [inhibitor, partial curve]"
16,N/C(=N\OC(=O)CSc1ccccc1)c1ccc([N+](=O)[O-])cc1,"inconclusive: 0.631 µM [inhibitor, full curve, poor fit]"
17,Cc1nc(NC(=O)c2ccccc2)sc1-c1csc(Nc2ccc(Cl)cc2Cl)n1,active: 50.1 µM
18,O=C1C(=O)c2ccccc2C(O)=C1c1ccccc1F,"inconclusive: 89.1 µM [inhibitor, single point]"
19,COc1ccc(CCNc2nc(-c3cccc(NC(C)=O)c3)cs2)cc1OC,"inconclusive: 56.2 µM [inhibitor, partial curve]"
20,O=C(NCc1ccco1)c1ccccc1-c1nc(-c2ccc(F)cc2)no1,inactive
21,CCOc1ccc(N2C(=O)C(CC(=O)Nc3ccc(F)cc3)N(Cc3ccccn3)C2=S)cc1 (stereo not given),"inconclusive: 28.2 µM [inhibitor, full curve, poor fit]"
22,O=C(CCSc1nnc2ccc3ccccc3n12)Nc1ccc(F)cc1,"inconclusive: 7.08 µM [inhibitor, single point]"

# Reference: PubChem BioAssay AID504333 (National Center for Advancing Translational Sciences (NCATS), 2011)
